These are yes or no findings as the source states them, for the method shown. Binding seen in cells or lysates may run through a third protein. Some entries that bind do so weakly or less than the wild type.
Key:
[1] = molecular target: Myc-CCNA2 (human) (UniProt P20248); assay: co-IP; HEK293T cotransfected for 20 h with Myc-cyclin and mCherry-MAD1; Myc IP with 9E10 mAb; Western blot for mCherry
[2] = molecular target: Myc-CCNB1 (human) (UniProt P14635); assay: as above
[3] = molecular target: Myc-CCNB2 (human) (UniProt O95067); assay: as above
[4] = molecular target: CCNB1-mCherry (cyclin B1 tagged at the endogenous locus) (human (endogenous in HeLa)) (UniProt P14635); assay: co-IP; CCNB1-mCherry precipitated with anti-mCherry antibodies from CCNB1-mCh or parental HeLa cells arrested in mitosis; Western blotting; also tested without ongoing MPS1 activity (Fig. S2 B)

Sequences of proteins named here, by UniProt entry; tags and fusion partners are left off.
UniProt P20248: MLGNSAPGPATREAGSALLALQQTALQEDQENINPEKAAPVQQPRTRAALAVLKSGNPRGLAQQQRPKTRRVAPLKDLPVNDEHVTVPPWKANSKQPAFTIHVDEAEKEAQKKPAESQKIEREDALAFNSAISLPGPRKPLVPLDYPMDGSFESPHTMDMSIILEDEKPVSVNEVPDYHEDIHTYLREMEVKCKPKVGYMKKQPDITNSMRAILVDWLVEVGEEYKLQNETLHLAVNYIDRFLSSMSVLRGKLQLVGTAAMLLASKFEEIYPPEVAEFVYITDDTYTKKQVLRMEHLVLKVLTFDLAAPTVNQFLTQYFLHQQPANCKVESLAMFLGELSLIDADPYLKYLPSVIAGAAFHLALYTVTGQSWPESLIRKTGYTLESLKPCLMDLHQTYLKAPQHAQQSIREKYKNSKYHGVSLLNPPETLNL
UniProt P14635: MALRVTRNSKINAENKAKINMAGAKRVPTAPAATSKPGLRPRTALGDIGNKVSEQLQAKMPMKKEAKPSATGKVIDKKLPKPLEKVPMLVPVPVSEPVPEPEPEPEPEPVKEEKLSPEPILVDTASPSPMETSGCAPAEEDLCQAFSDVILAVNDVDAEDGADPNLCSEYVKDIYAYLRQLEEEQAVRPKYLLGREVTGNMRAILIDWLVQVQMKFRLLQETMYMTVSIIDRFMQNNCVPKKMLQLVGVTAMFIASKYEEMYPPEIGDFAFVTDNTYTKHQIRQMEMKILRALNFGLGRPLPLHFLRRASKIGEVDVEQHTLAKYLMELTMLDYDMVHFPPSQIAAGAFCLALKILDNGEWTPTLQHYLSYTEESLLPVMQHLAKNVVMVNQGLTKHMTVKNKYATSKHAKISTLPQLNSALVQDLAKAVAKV
UniProt O95067: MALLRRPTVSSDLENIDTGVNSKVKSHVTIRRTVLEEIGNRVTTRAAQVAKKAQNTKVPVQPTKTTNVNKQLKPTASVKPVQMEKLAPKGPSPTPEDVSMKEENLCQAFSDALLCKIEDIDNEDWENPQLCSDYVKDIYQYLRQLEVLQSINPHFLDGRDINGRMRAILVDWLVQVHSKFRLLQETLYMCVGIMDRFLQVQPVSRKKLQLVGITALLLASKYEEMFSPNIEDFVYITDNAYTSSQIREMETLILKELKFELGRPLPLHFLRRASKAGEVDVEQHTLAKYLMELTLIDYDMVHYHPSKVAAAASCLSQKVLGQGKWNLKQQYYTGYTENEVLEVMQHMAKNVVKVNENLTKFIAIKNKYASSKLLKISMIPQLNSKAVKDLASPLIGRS

B1: full-length mCh-MAD1 (protein, UniProt Q9Y6D9 1-718)
chain: MEDLGENTMVLSTLRSLNNFISQRVEGGSGLDISTSAPGSLQMQYQQSMQLEERAEQIRSKSHLIQVEREKMQMELSHKRARVELERAASTSARNYEREVDRNQELLTRIRQLQEREAGAEEKMQEQLERNRQCQQNLDAASKRLREKEDSLAQAGETINALKGRISELQWSVMDQEMRVKRLESEKQELQEQLDLQHKKCQEANQKIQELQASQEARADHEQQIKDLEQKLSLQEQDAAIVKNMKSELVRLPRLERELKQLREESAHLREMRETNGLLQEELEGLQRKLGRQEKMQETLVGLELENERLLAKLQSWERLDQTMGLSIRTPEDLSRFVVELQQRELALKDKNSAVTSSARGLEKARQQLQEELRQVSGQLLEERKKRETHEALARRLQKRVLLLTKERDGMRAILGSYDSELTPAEYSPQLTRRMREAEDMVQKVHSHSAEMEAQLSQALEELGGQKQRADMLEMELKMLKSQSSSAEQSFLFSREEADTLRLKVEELEGERSRLEEEKRMLEAQLERRALQGDYDQSRTKVLHMSLNPTSVARQRLREDHSQLQAECERLRGLLRAMERGGTVPADLEAAAASLPSSKEVAELKKQVESAELKNQRLKEVFQTKIQEFRKACYTLTGYQIDITTENQYRLTSLYAEHPGDCLIFKATSPSGSKMQLLETEFSHTVGELIEVHLRRQDSIPAFLSSLTLELFSRQTVA
[1]
  binding: no binding
[2]
  binding: binds
[3]
  binding: no binding

B2: MAD1 (endogenous) (protein, UniProt Q9Y6D9 1-718)
chain: B1 chain
[4]
  binding: binds

— PMC6446853
